This is one part of the list. Viral Rep nickase domains cut single-stranded DNA in vitro for 1 h at 37 °C with 3 µM enzyme; only the middle of the 90-letter strands is printed. The score is log2 (uncut reads / reads without enzyme); uncut sequences lie near 0, cut ones below; no hit call is given. Because reads are shares of a total, they shift together; uncut strands gain when others are lost, and binding without cutting may add a little.
Key:
Test in all cases: uncleaved DNA left, log2 of reads against the no-enzyme library (log2 ratio); higher = less cleavage (more negative = more Rep cleavage of the k-mer); sequences stand for … in CTCGTCCG…ACCGGAGA
[1] = system: T1, Rep nickase domain of Muscovy duck circovirus
T1 sequence (Rep 1-111, printed without the tag): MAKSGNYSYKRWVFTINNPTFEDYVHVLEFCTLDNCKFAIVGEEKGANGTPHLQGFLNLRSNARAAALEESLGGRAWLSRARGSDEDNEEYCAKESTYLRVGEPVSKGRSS
Description: (§1)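 A pool of 90-nt single-stranded DNAs with seven random bases just before the constant AC of the nick site (name = the seven bases) was cut by 3 µM recombinant His6-SUMO-tagged Rep nickase domain (300 nM DNA, 50 mM HEPES pH 8.0, 50 mM NaCl, 1 mM MnCl2, 1 h, 37 °C, three replicates). Uncut DNA was amplified and sequenced.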

[2] = system: T2, Rep nickase domain of banana bunchy top virus
T2 sequence (Rep 1-94, printed without the tag): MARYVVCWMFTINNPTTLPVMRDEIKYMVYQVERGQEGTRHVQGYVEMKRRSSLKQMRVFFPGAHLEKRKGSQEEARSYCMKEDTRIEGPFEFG
Description: as §1

[3] = system: T3, Rep nickase domain of cabbage leaf curl virus
T3 sequence (Rep 1-116, printed without the tag): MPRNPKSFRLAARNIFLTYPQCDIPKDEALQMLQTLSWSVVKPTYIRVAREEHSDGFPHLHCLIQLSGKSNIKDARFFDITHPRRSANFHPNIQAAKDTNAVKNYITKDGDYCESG
Description: as §1

[4] = system: T4, Rep nickase domain of chickpea chlorotic dwarf virus
T4 sequence (Rep 1-124, printed without the tag): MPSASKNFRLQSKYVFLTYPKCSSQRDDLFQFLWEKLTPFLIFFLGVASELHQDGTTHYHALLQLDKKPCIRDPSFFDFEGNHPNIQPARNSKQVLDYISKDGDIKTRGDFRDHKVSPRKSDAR
Description: as §1

[5] = system: T5, Rep nickase domain of faba bean necrotic yellows virus
T5 sequence (Rep 1-98, printed without the tag): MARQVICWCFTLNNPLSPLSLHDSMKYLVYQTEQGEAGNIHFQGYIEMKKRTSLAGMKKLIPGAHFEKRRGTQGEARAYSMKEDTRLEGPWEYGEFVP
Description: as §1

[6] = system: T6, Rep nickase domain of maize striate mosaic virus
T6 sequence (Rep 1-117, printed without the tag): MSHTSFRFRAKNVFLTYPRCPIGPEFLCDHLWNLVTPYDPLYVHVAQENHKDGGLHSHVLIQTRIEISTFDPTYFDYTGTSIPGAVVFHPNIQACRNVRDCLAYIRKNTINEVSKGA
Description: as §1

[7] = system: T7, Rep nickase domain of porcine circovirus 2
T7 sequence (Rep 2-116, printed without the tag): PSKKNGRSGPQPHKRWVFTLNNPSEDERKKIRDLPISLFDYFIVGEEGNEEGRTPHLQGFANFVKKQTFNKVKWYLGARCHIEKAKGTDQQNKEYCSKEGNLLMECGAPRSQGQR
Description: as §1

[8] = system: T8, Rep nickase domain of tomato golden mosaic virus
T8 sequence (Rep 1-124, printed without the tag): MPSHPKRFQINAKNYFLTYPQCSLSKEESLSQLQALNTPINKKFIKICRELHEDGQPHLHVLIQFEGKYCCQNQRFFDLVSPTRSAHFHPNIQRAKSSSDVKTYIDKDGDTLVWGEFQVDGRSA
Description: as §1

[9] = system: T9, Rep nickase domain of tomato yellow leaf curl virus
T9 sequence (Rep 1-136, printed without the tag): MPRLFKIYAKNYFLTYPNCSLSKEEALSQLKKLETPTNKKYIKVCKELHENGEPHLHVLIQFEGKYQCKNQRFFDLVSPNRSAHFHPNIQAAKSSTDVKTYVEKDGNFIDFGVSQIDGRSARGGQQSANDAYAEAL
Description: as §1

[10] = system: T10, Rep nickase domain of wheat dwarf virus
T10 sequence (Rep 1-137, printed without the tag): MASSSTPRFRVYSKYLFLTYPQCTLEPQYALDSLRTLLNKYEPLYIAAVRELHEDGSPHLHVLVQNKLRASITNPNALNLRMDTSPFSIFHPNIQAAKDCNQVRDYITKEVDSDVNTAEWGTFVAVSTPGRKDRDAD
Description: as §1

Row | Sequence | uncleaved DNA left (log2) [1] | uncleaved DNA left (log2) [2] | uncleaved DNA left (log2) [3] | uncleaved DNA left (log2) [4] | uncleaved DNA left (log2) [5] | uncleaved DNA left (log2) [6] | uncleaved DNA left (log2) [7] | uncleaved DNA left (log2) [8] | uncleaved DNA left (log2) [9] | uncleaved DNA left (log2) [10]
1 | TACATAC | -0.0294 | -0.111 | -0.153 | -1.08 | -0.0974 | -0.837 | 0.00184 | -0.103 | -0.00746 | -0.0227
2 | TGTGGAA | -0.0635 | -0.116 | 0.364 | 0.835 | -0.057 | 1.36 | -0.0608 | -0.156 | -0.0367 | -0.00295
3 | AGAGGAG | 0.0794 | 0.0603 | -0.0154 | 0.811 | 0.0465 | 0.312 | 0.206 | 0.0656 | 0.00818 | 0.0723
4 | ACGAGAT | 0.0458 | 0.0426 | 0.243 | 0.672 | -0.0516 | 0.672 | 0.125 | 0.0607 | -0.134 | 0.0275
5 | GCGTAAG | 0.0543 | 0.104 | -0.142 | 0.0267 | 0.066 | -0.725 | 0.0969 | 0.145 | 0.0186 | -0.0972
6 | GACCTTT | -0.023 | -0.0978 | 0.105 | -1.13 | -0.134 | 0.81 | -1.17 | -0.0558 | -0.0166 | -0.0525
7 | TCTGTCG | 0.0822 | -0.182 | -0.841 | 0.0915 | -0.0371 | -1.05 | 0.108 | -0.0522 | -0.107 | -0.118
8 | TAGAACC | -0.0649 | 0.111 | 0.148 | -0.423 | -0.0817 | 0.0178 | -0.521 | -0.126 | 0.061 | 0.0196
9 | TTTGCTT | -0.127 | -0.0197 | -0.541 | -1.94 | -0.045 | -1.34 | -0.125 | -0.0696 | -0.0463 | -0.221
10 | GACTCCG | 0.0071 | 0.0439 | -0.69 | -0.729 | 0.0473 | -1.06 | 0.0643 | 0.0607 | -0.0965 | -0.116
11 | GATGATG | 0.0915 | -0.0332 | -0.0138 | 0.268 | 0.0855 | -0.02 | 0.0711 | 0.137 | 0.085 | 0.0493
12 | ATGGTTC | 0.131 | -0.067 | 0.116 | -0.854 | -0.151 | 0.339 | 0.101 | -0.122 | -0.13 | -0.0576
13 | GATCAGC | 0.109 | 0.124 | 0.221 | 0.562 | 0.111 | -0.0616 | 0.202 | 0.0837 | 0.124 | 0.236
14 | ACACCCT | -0.204 | 0.0537 | -0.172 | -1.81 | 0.0302 | -0.176 | -0.175 | -0.0814 | -0.14 | -0.0336
15 | CCCAGAG | 0.161 | 0.0766 | -0.551 | -0.246 | -0.0475 | -0.694 | 0.218 | 0.11 | 0.21 | 0.0421

Reference: the supplement of paper PMC7826260
